This note sets out measurements from the supplement of paper PMC10126150.

The test system of the data set is ATP. Nature of the data set: switch fluorescence ratio, 500 uM ATP over buffer (Cy3 cluster intensity, sum of 5 cycles each) (fold (ratio)); higher = stronger signal-on switching upon ATP binding; sequences stand for … in TCGTCGGCAGCGTCAGATGTGTATAAGAGACAGTTTTTTTTTTTTTTTTTTTTTTTTT…TC. The settings on record: aptamer strand: ATP DNA aptamer (quencher-CACCTGGGGGAGTATTGCGGAGGAAGG + anchor), 100 nM annealed; ATP concentration: 500 uM; one replicate. A digest of the protocol:
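Values give the fluorescence ratio for each switch-domain sequence, averaged from per-cluster ratios of summed target-cycle to summed buffer-cycle Cy3 intensity. The Cy3-labelled switching-strand clusters sat on a modified Illumina MiSeq flow-cell, were annealed to 100 nM quencher-labelled ATP aptamer, and were imaged in selection buffer, then after 15 min with 500 uM ATP at 22 °C. Five cycles ran with NaOH stripping and re-annealing between them, and clusters outside 100-1000 RFU were excluded.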

Values marked as one replicate rest on one cluster of the flow cell; about a third of the high ones do not repeat.
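Also: ATP exposure 15 min at 22 °C before imaging.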

On to CGTTGTAATA, for which the switch fluorescence ratio was 1.08.

Regarding GGTCGCGGGA, the switch fluorescence ratio came out at 1.02.

For the sequence TTAGGCCGTT, the switch fluorescence ratio worked out at 1.02.

Regarding AACGTTTAC, the switch fluorescence ratio is 1.16.

With ATGAGCCCGA, the switch fluorescence ratio turned out to be 0.995.

For the sequence GTGCGGATGC, the switch fluorescence ratio was determined as 0.941.

Turning to ATGGGTGTG, the switch fluorescence ratio worked out at 0.977.

As for GGAGAGAAGG, the switch fluorescence ratio stood at 0.939.

On to AAGAGCTTTA, for which the switch fluorescence ratio turned out to be 0.976.

As for ATGTCGGGAT, the switch fluorescence ratio stood at 1.

As for TCATTCTGGA, the switch fluorescence ratio was found to be 0.989.

Turning to TCATTCACTT, the switch fluorescence ratio stood at 1.05.

For the sequence TGTCTGT, the switch fluorescence ratio came out at 1.12.

Take GAAGAATCAA: the switch fluorescence ratio was found to be 0.985.

For GGGTGAGCCA, the switch fluorescence ratio is 0.983.

TCACTAGTA: the switch fluorescence ratio amounted to 0.992.

On to AGGTCCTTCG, for which the switch fluorescence ratio came to 1.12.

GGAGTATATG: the switch fluorescence ratio was 1.02.

On to TGTTTGTGG, for which the switch fluorescence ratio is 0.967.

Turning to CTGCGGTGTT, the switch fluorescence ratio was found to be 0.985.

Take TTTGCTAATC: the switch fluorescence ratio was found to be 1.06.

As for CGTGCTTATT, the switch fluorescence ratio was 1.1.

Consider GTAGTGATGT, for which the switch fluorescence ratio was determined as 1.04.

As to TAATAAGCAG, the switch fluorescence ratio came to 1.03.

For the sequence TAGGTGGCCA, the switch fluorescence ratio was 0.992.

As for TTTCTTCAA, the switch fluorescence ratio came out at 1.

Consider CAAACGTCTA, for which the switch fluorescence ratio came to 1.03.

On to TGGGCATTTC, for which the switch fluorescence ratio worked out at 4.25.

For the sequence CTACTATCG, the switch fluorescence ratio came out at 0.992.

On to CTGCTGTAGA, for which the switch fluorescence ratio is 1.06.

As for CAGACTTCAA, the switch fluorescence ratio was determined as 1.07.

In the case of TCCAACATAA, the switch fluorescence ratio stood at 1.02.

Regarding GACTGACTGT, the switch fluorescence ratio worked out at 1.09.

For CGAGAGGGTT, the switch fluorescence ratio came to 0.981.

For TAAAACTGGG, the switch fluorescence ratio was determined as 0.976.

CCAAGATACC: the switch fluorescence ratio was 2.08.

As for TGGGGGCGA, the switch fluorescence ratio turned out to be 0.983.

With CCGGAGTGCA, the switch fluorescence ratio came out at 3.

Consider CGACAGGAA, for which the switch fluorescence ratio was found to be 1.19.

GCGAGCAGGG: the switch fluorescence ratio came to 1.04.

In the case of GGGGCATTA, the switch fluorescence ratio turned out to be 1.05.

For the sequence AAACTAGCTC, the switch fluorescence ratio amounted to 0.991.

For the sequence GTGTGGACGA, the switch fluorescence ratio stood at 1.03.

Regarding AAGTACATAT, the switch fluorescence ratio came out at 1.26.

ACATACATTC: the switch fluorescence ratio was determined as 1.2.

With TTGCGAGCGG, the switch fluorescence ratio turned out to be 1.

For the sequence CACCGGACGT, the switch fluorescence ratio was 1.28.

Turning to GATCAGGTAG, the switch fluorescence ratio is 1.06.

Take CTAAGATTTA: the switch fluorescence ratio worked out at 0.982.

Consider GGGGCCTGCG, for which the switch fluorescence ratio came out at 1.02.

As for GGTTACATTT, the switch fluorescence ratio was found to be 1.03.

With GGGAGATCTA, the switch fluorescence ratio came out at 0.992.

Regarding ACTTGGAGCT, the switch fluorescence ratio came to 1.02.

Regarding AGTTTCTTTG, the switch fluorescence ratio turned out to be 1.01.

Consider TTGTTCGTGG, for which the switch fluorescence ratio was found to be 0.95.

CTATCGGGGC: the switch fluorescence ratio was 0.94.

For the sequence ATGTGATATT, the switch fluorescence ratio came out at 0.992.

Consider TGTTATGTAC, for which the switch fluorescence ratio was determined as 1.1.

As to CGTAAGGGGC, the switch fluorescence ratio came to 1.02.

As for TGGGTTGAAA, the switch fluorescence ratio is 0.99.

On to TAATTATTCG, for which the switch fluorescence ratio worked out at 1.

TATGACTATA: the switch fluorescence ratio is 1.07.

Turning to GAGGTCAGGG, the switch fluorescence ratio came to 0.965.

With TACTTTGGAA, the switch fluorescence ratio was determined as 1.02.

As to GAGTCCATGT, the switch fluorescence ratio came out at 0.978.

Consider GGCGGGGGG, for which the switch fluorescence ratio was 1.04.

As for GGTGCGGCCG, the switch fluorescence ratio stood at 1.02.

On to TGCAACTTT, for which the switch fluorescence ratio worked out at 1.11.

Regarding TTCTATTTGG, the switch fluorescence ratio turned out to be 0.996.

For the sequence TAGATCTACA, the switch fluorescence ratio was determined as 0.976.

CAGTTATAAC: the switch fluorescence ratio came to 0.989.

As to AACTTCTGCT, the switch fluorescence ratio worked out at 1.03.

On to TGATTCGCCT, for which the switch fluorescence ratio was 1.09.

Regarding ACAGTGGCTA, the switch fluorescence ratio was found to be 1.01.

Take GGGTTTATCG: the switch fluorescence ratio was determined as 0.968.

Take TTGAAAACCT: the switch fluorescence ratio stood at 1.07.

As to GAGTTCTTGA, the switch fluorescence ratio was 0.993.

Regarding TGCTCTTCGG, the switch fluorescence ratio was determined as 0.972.

CACCCCCCAT: the switch fluorescence ratio is 1.62.

Regarding TGGTAGCAAA, the switch fluorescence ratio was 1.02.

Regarding ACCCGACGG, the switch fluorescence ratio stood at 1.18.

As to TATCGTGCCA, the switch fluorescence ratio came to 1.02.

On to ATAGCATATA, for which the switch fluorescence ratio was 1.04.

As for CGTTTTTCA, the switch fluorescence ratio was found to be 0.997.

Regarding CGTTTACCGG, the switch fluorescence ratio is 0.989.

Take CGCATACCCT: the switch fluorescence ratio amounted to 2.79.

For GTTTCTCAGT, the switch fluorescence ratio was 1.06.

On to GGGGCGGGCG, for which the switch fluorescence ratio is 1.09.

For CTTGGCCATA, the switch fluorescence ratio worked out at 0.978.

TGTCACCG: the switch fluorescence ratio worked out at 0.974.

Take GGAATATTGA: the switch fluorescence ratio came to 0.998.

Regarding ACGCTTAAGT, the switch fluorescence ratio is 1.06.

Consider TTAAAATCGG, for which the switch fluorescence ratio came out at 0.979.

Regarding CGCTTTGGTA, the switch fluorescence ratio amounted to 0.962.

In the case of GCTTGTGTGG, the switch fluorescence ratio is 0.981.

Regarding GGTTAATTGA, the switch fluorescence ratio came out at 0.989.

For GACAAGACGG, the switch fluorescence ratio was 1.14.

In the case of GCAATTTCAA, the switch fluorescence ratio worked out at 1.04.

For the sequence AGAAAACCGC, the switch fluorescence ratio was found to be 1.31.

AAAAGGGAAA: the switch fluorescence ratio amounted to 0.993.

Take GCGCAGTAAG: the switch fluorescence ratio is 1.03.

GGTACGGGGC: the switch fluorescence ratio was 1.02.

With GGAAGGGGCG, the switch fluorescence ratio stood at 1.1.

As for GGGGCGAGAA, the switch fluorescence ratio turned out to be 1.02.

With TGCGCGGGGG, the switch fluorescence ratio was determined as 0.998.

As to GACGGTGGTA, the switch fluorescence ratio came to 0.973.

As to ACCCGGATGT, the switch fluorescence ratio was determined as 1.04.

Consider TTAATCGAGT, for which the switch fluorescence ratio was 1.07.

For the sequence ATTGATCTAG, the switch fluorescence ratio is 1.01.

Regarding GACGGAGTTA, the switch fluorescence ratio came to 1.09.

On to ATTCTGACTC, for which the switch fluorescence ratio is 1.1.

For CAGGGCCTCT, the switch fluorescence ratio was found to be 0.99.

On to TTCAGTTATG, for which the switch fluorescence ratio amounted to 1.01.

For the sequence TTAGCAGGGT, the switch fluorescence ratio came to 0.989.

Take TGCAGAAGCT: the switch fluorescence ratio is 1.03.

On to GGGAGGCATT, for which the switch fluorescence ratio was determined as 0.939.

Consider GGTGGTCCGT, for which the switch fluorescence ratio is 1.03.

For GAGTCGGAAA, the switch fluorescence ratio was determined as 1.02.

Turning to CGTGTACGCA, the switch fluorescence ratio was determined as 0.946.

As to ATTTACTGTA, the switch fluorescence ratio worked out at 1.08.
